# The campaign covered roughly 200,000 compounds. About 4,500 (2.2%) were called active. This list was built around the results that the source calls inconclusive (neither active nor inactive); the mix of calls is not that of the screen. The call rests on the fitted dose curve; in most records, active means well fitted inhibition curve with a large enough effect; inconclusive means small, poorly fitted or top-dose-only effect, or effect the other way; inactive means flat fitted curve, though single readings scatter. A potency beside an inconclusive call is a rough fit, not a confirmed value.
# Molecular target: Cruzipain (Trypanosoma cruzi) (UniProt P25779)
# Sequence of UniProt P25779 (P25779 whole entry, looked up): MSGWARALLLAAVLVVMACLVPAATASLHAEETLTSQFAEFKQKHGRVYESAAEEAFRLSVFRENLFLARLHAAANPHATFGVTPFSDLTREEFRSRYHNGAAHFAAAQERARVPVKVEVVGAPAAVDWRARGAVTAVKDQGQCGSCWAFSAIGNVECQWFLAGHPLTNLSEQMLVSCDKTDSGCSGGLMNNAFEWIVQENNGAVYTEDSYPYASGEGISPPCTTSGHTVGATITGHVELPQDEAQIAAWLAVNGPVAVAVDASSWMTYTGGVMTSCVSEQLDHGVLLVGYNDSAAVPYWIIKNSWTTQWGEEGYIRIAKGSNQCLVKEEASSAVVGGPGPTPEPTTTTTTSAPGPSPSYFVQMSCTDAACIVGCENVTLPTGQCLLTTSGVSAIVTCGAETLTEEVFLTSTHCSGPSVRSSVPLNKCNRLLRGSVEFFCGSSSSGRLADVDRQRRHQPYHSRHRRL
# Experiment: qHTS Assay for Promiscuous and Specific Inhibitors of Cruzain (without detergent); further: nearly all actives have a fitted effect of over 40% in size;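 on max response, negative = inhibition: plate controls were enzyme without inhibitor for no effect and buffer without enzyme for full effect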
# Details: purified cruzain, Z-FR-AMC fluorescence, no detergent
# Procedure, shortened: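 Purified cruzain at 1.5 nM, pre-incubated 15 min with compound at room temperature in 100 mM sodium acetate pH 5.5, 5 mM DTT, 0.00005% Triton X-100. Reaction started with 2 uM Z-FR-AMC; AMC fluorescence increase over 60 s gives rate.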
# Potency means the concentration at half of the fitted maximal effect; tags describe the fitted curve by direction and shape.
SMILES,Potency,"max response, negative = inhibition"
COc1ccc(NC(=O)CSc2nc(O)cc(=O)n2C)cc1,active: 15.8 µM,
C[C@@]12C=CC(=O)C=C1CC[C@H]1[C@H]3CC[C@](O)(C(=O)CO)[C@]3(C)CC(=O)[C@@H]12,,inactive: -2.09%
CC(C=O)Cc1ccc(C(C)(C)C)cc1 (stereo not drawn),,inactive: -0.876%
CC(C)Cn1c(N)c(C(=O)COC(=O)c2cc(C3CC3)nc3ccccc23)c(=O)n(C)c1=O,"inconclusive: 39.8 µM [activator, single point]",
CCOC(=O)NC(=O)/C(C#N)=N\Nc1ccc(Cl)cc1,active: 5.01 µM,
CCOC(=O)c1c(NC(=O)C2c3ccccc3Oc3ccccc32)sc(C)c1CC,,inactive: 9.82%
COc1cc(Nc2nc3c(S(=O)(=O)c4ccc(C)c(C)c4)nnn3c3ccsc23)cc(OC)c1,,inactive: 1.07%
O=C(Cn1nc(C(=O)O)c2ccccc2c1=O)NCCC1=CCCCC1,"inconclusive: 31.6 µM [inhibitor, single point]",
CN(C)c1ccc(C(CNS(=O)(=O)c2ccc(Cl)cc2)N2CCOCC2)cc1 (stereo not drawn),,inactive: 15%
CC(C)CCn1c(Sc2nc3ccccc3s2)nc2c1c(=O)[nH]c(=O)n2C,"inconclusive: 20 µM [activator, partial curve]",
Cc1cccc(NC(=O)C2CCN(c3nnc(C)c4c(C)n(-c5ccccc5)nc34)CC2)c1C,,inactive: 1.09%
CCc1nn(CC(=O)Nc2cccc(C(C)=O)c2)c(=O)c2cc3sccc3n12,,inactive: -7.09%
Cc1nn(C)cc1CN(C)C(=O)c1sc2cccc(Cl)c2c1Cl,"inconclusive: 39.8 µM [activator, single point]",
Nc1n[nH]c2c1C1(CCCCC1)Cc1ccccc1-2,"inconclusive: 31.6 µM [inhibitor, single point]",
C(=N\Nc1nc2ccccc2[nH]1)/c1c[nH]c2ccccc12,active: 15.8 µM,
COc1ccnc(Oc2ccc(F)cc2)c1C(=O)N/C=N/OCc1ccc(Cl)cc1Cl,"inconclusive: 39.8 µM [activator, single point]",
COc1cc(Nc2ncc3c(n2)CCN(Cc2cccc(C)c2)C3)cc(OC)c1,,inactive: -3.64%
CC1CCCN(c2nc3c(c(=O)[nH]c(=O)n3C)n2Cc2ccccc2Cl)C1 (stereo not drawn),,inactive: -7.59%
Cn1nnnc1SCCCNCc1cccc(OCc2ccc(F)cc2)c1,,inactive: -4.48%
O=C(NCC1(c2ccccc2)CCCC1)C(=O)Nc1cccc(Br)c1,,inactive: 4.91%
CS(=O)(=O)N(CC(=O)N1CCN(c2ccccc2F)CC1)c1cc(C(F)(F)F)ccc1Cl,"inconclusive: 39.8 µM [activator, single point]",
COc1cccc(NC(=O)C(OC(=O)c2ccc([N+](=O)[O-])o2)c2ccccc2)c1 (stereo not drawn),"inconclusive: 31.6 µM [inhibitor, single point]",
CCCc1nc(SCC(=O)N2CCCC2)c2ccccc2n1,,inactive: -2.65%

SMILES,Potency,"max response, negative = inhibition"
CS(=O)(=O)c1ccc2nc(NC(=O)C3CCCCC3)sc2c1,,inactive: 6.38%
CCOC(=O)c1sc2nc(CC(=O)OC)nc(NCCN(CC)CC)c2c1C,"inconclusive: 25.1 µM [inhibitor, single point]",
CC(C)Sc1nnc(CNC(=O)C23CC4CC(CC(C4)C2)C3)n1C1CCCCC1,"inconclusive: 31.6 µM [activator, single point]",
COc1ccc(C2(CNC(=O)/C=C/c3ccco3)CCCC2)cc1OC,"inconclusive: 39.8 µM [activator, single point]",
Cn1c(N2CCN(C(=O)NC34CC5CC(CC(C5)C3)C4)CC2)nc2ccccc21,"inconclusive: 31.6 µM [inhibitor, single point]",
COC(=O)C1=C(C)NC(c2c(O)ccc3ccccc23)C(C(=O)OC)=C1C (stereo not drawn),"inconclusive: 31.6 µM [activator, single point]",
COc1ccc(/C=C\c2onc(C)c2S(=O)(=O)N2CCC(C(=O)Nc3cccc(OC)c3)CC2)cc1,"inconclusive: 39.8 µM [inhibitor, single point]",
CCOC(=O)c1c(C)[nH]c(C)c1S(=O)(=O)N(C)CC(=O)Nc1ccc(CC)cc1,"inconclusive: 39.8 µM [activator, single point]",
C=C(C(C)=O)C(O)c1ccc2ccccc2c1 (stereo not drawn),,inactive: 5.53%
COc1cc(NC(=O)Cn2c(=O)ccc3cc(S(=O)(=O)N4CCCC4)ccc32)cc(OC)c1,,inactive: 8.17%
COc1ccc(CC(=O)N2CC3(C)CC2CC(C)(C)C3)cc1OC (stereo not drawn),"inconclusive: 25.1 µM [activator, single point]",
O=C(NCCC1=CCCCC1)C1CCN(S(=O)(=O)c2cccc3nonc23)CC1,"inconclusive: 39.8 µM [inhibitor, single point]",
Cc1ccc(C(=O)NC(=S)Nc2ccc(NC(=O)c3cccs3)cc2)cc1[N+](=O)[O-],active: 10 µM,
O=C(Nn1cnnc1)c1ccccc1CCc1ccccc1,"inconclusive: 39.8 µM [activator, single point]",
Cc1c(Cl)cccc1NC(=O)NC1CCCCC1,"inconclusive: 39.8 µM [inhibitor, single point]",
COc1cccc(NC(=O)C(OC(=O)c2ccccc2NS(=O)(=O)c2cccs2)c2ccccc2)c1 (stereo not drawn),"inconclusive: 31.6 µM [inhibitor, single point]",
Cc1n[nH]c(=O)n1-c1ccc(Oc2ccccc2)cc1,,inactive: 4.55%
Cc1cc(C)c2c(CC(=O)N(Cc3ccc(Cl)cc3)Cc3ccco3)coc2c1,"inconclusive: 39.8 µM [inhibitor, single point]",
CCCCC/C=C\C/C=C\C/C=C\C/C=C\CCCC(=O)N(Cc1ccc(O)c(Cl)c1)Cc1ccc(O)c(Cl)c1,"inconclusive: 3.98 µM [inhibitor, partial curve]",
Cc1cc(-n2ccnc(NCCc3ccc(S(N)(=O)=O)cc3)c2=O)ccc1Br,,inactive: -17.1%
COC(=O)C1=C(CSc2nc3ccccc3s2)NC(=O)NC1c1ccc(F)cc1 (stereo not drawn),"inconclusive: 25.1 µM [inhibitor, single point]",
O=C(Oc1coc(CSc2nnc(NC(=O)c3cccs3)s2)cc1=O)c1ccccc1,"inconclusive: 39.8 µM [inhibitor, single point]",
O=C(O)C[C@@H](C(=O)O)C1c2ccccc2-c2ccccc21,,inactive: 0.0625%

SMILES,Potency,"max response, negative = inhibition"
N#Cc1c(C(F)(F)F)cc(-c2cccs2)nc1SCC(=O)Nc1cccc(Cl)c1,,inactive: -11%
COc1ccc(CN2CCOCC2)cc1OC,"inconclusive: 1.58 µM [inhibitor, single point]",
COc1ccc(C2CC(c3ccccc3)=NN2C(=O)c2ccc(Cl)c([N+](=O)[O-])c2)cc1 (stereo not drawn),active: 10 µM,
COc1ccc(-c2nn3c(-c4ccccc4)nnc3s2)cc1,"inconclusive: 31.6 µM [activator, single point]",
COc1ccccc1CN1CCCC2(CCN(C(=O)c3ccncc3)CC2)C1,,inactive: 3.62%
Cc1ccc(C(=O)N/C(=C\c2ccc(Cl)cc2)C(=O)NC2CCCCC2)cc1,,inactive: 3.94%
Oc1c(Br)cc(Br)cc1C=Nc1ccc2c(c1)OCO2,"inconclusive: 31.6 µM [inhibitor, single point]",
Cc1cc(C)nc(N/N=C/c2ccccc2OCc2ccc([N+](=O)[O-])cc2)n1,,inactive: -16.3%
Cc1cc2cc(CN(C(=O)C3CC3)C3CCCC3)c3nnnn3c2cc1C,"inconclusive: 39.8 µM [activator, single point]",
Cc1cccc(C(=O)N2CCC(=O)N([C@H](COCc3ccc(Cl)cc3)Cc3ccccc3)CC2)c1,"inconclusive: 39.8 µM [activator, single point]",
Cc1ccc(CCC(=O)Nc2ncc(Cc3cc(Cl)ccc3Cl)s2)o1,active: 25.1 µM,
COc1ccc(Nc2nc(C)nc(N)c2S(=O)(=O)c2ccccc2)cc1,,inactive: 13.9%
O=C(CSc1nnc(-c2ccccc2)n1-c1ccccc1)c1ccc[nH]1,"inconclusive: 39.8 µM [inhibitor, single point]",
COc1ccccc1C(=O)Nc1sc(Nc2ccccc2)nc1C(N)=O,"inconclusive: 39.8 µM [inhibitor, single point]",
Cc1ccc2occ(C(c3nnnn3C3CCCC3)N3CCN(C(=O)c4ccco4)CC3)c(=O)c2c1 (stereo not drawn),"inconclusive: 39.8 µM [activator, single point]",
COc1ccccc1NC(=O)c1cc2ccccc2o/c1=N\O,"inconclusive: 31.6 µM [inhibitor, single point]",
N#CC1=C(N)NC(SCc2ccc(F)cc2)=C(C#N)C12CCCCC2,"inconclusive: 7.94 µM [inhibitor, single point]",
O=C(Oc1ccc2ccccc2c1)c1cncc(Br)c1,"inconclusive: 39.8 µM [inhibitor, single point]",
COC(=O)c1scc(-c2ccc(C)cc2)c1S(=O)(=O)Nc1cc(C)ccc1OC,"inconclusive: 31.6 µM [inhibitor, single point]",
COc1cc(C(=O)Nc2nc(-c3ccc(C)cc3)cs2)ccc1OCC(=O)N1CCOCC1,"inconclusive: 31.6 µM [activator, single point]",
Cc1ccc(CN2CCc3c(OCC(=O)Nc4cccc(C)c4C)cccc3C2=O)cc1,"inconclusive: 31.6 µM [inhibitor, single point]",
CCc1ccc(C2=CC(c3c(F)cccc3Cl)n3c(nc4ccccc43)N2)cc1 (stereo not drawn),"inconclusive: 39.8 µM [inhibitor, single point]",
